Data reported in PubChem BioAssay AID504832 (National Center for Advancing Translational Sciences (NCATS), 2011).
The whole screen tested about 310,000 compounds, of which about 18,000 (5.8%) were called active. This list was built around the results that the source calls inconclusive (neither active nor inactive); the mix of calls is not that of the screen. Calls follow the shape of the dose curve; as a rule, active = well fitted inhibition curve with a large enough effect; inconclusive = small, poorly fitted or top-dose-only effect, or another doubt; inactive = no such curve, though single readings can be large or run the other way. Potencies of inconclusive entries are left out as doubtful fits.

assay: Primary qHTS for delayed death inhibitors of the malarial parasite plastid, 48 hour incubation; settings: P. falciparum luciferase growth in erythrocytes; series mostly up to 28.7 µM; activity change, negative = inhibition: at the top concentration
Outline: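 First compound was added to culture medium, then infected red cells at 0.1% parasitemia and 2% hematocrit (final). After incubation at 37 C under 5% CO2, luciferase detection reagent was dispensed and light output recorded.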
% is scaled to controls: 0 for no effect and ±100 for the full control effect; potency is read from the fitted curve at half-maximal effect; tags tell the direction and shape of the fitted curve.

SMILES	Potency	activity change, negative = inhibition
COc1cc(/C=N/NC(=O)C(Cc2c[nH]c3ccccc23)NC(=O)OCC(C)C)cc([N+](=O)[O-])c1OCc1ccccc1 (stereo not drawn)	inconclusive [inhibitor, partial curve]	
Nc1c(C(=O)CSc2nnc(N3CCOCC3)n2-c2cccc(F)c2)c(=O)[nH]c(=O)n1C1CC1	inconclusive [inhibitor, single point]	
C[N+]12CCCC[C@@H]1CCC(=C(c1cccs1)c1cccs1)C2 (stereo partly drawn)	active: 4.26 µM	
COc1ccc(C(C)=O)cc1COC(=O)c1ccc(C)c(S(=O)(=O)N2CCOCC2)c1	active: 9.28 µM	
CCOC(=O)N1CCN(C(=O)COc2cccc3c2CCN(Cc2ccccc2C)C3=O)CC1	inconclusive [inhibitor, single point]	
CN1CCN(C(=O)c2cc3cc(Cl)ccc3[nH]2)CC1		inactive: -10.6%
COc1ccc(C(=O)Nc2ccc(S(=O)(=O)N3CCCCC3)cc2)cc1	inconclusive [inhibitor, partial curve]	
COc1ccccc1C(=O)NC(C)C(c1cccs1)N1CCN(C)CC1 (stereo not drawn)	inconclusive [inhibitor, full curve, poor fit]	
COc1ccc2[nH]c3c(c2c1)CCN1C(=O)N([C@@H](C)C(=O)NCc2c(F)cccc2Cl)C(=O)[C@]31C	inconclusive [inhibitor, partial curve]	
CSc1c(CC(=O)Nc2ccccc2)n(Cc2ccccc2)c2ccccc12	active: 11.7 µM	
CN(C)c1oc(COc2ccccc2F)nc1C#N		inactive: 33.7%
CCc1ccc(OCC(=O)N2CCN(CC(=O)Nc3ccccc3Cl)CC2)cc1	inconclusive [inhibitor, partial curve]	
O=C(CN1CCOCC1)N/N=C/c1ccc(-c2cccc(Cl)c2Cl)o1	inconclusive [inhibitor, single point]	
COc1cccc(Cn2cnc3c(N)c(C)c(C)cc32)c1	inconclusive [inhibitor, single point]	
Cc1csc(NC(=O)c2cc3c(C)nn(Cc4ccccc4Cl)c3s2)n1	inconclusive [inhibitor, single point]	
O=C(c1cc2ccccc2cc1O)N1CCN(c2ccccn2)CC1	inconclusive [inhibitor, partial curve, poor fit]	
CCCCCCC(=O)N1C/C=C\C(c2ccc(OC)cc2)N(Cc2ccc(F)cc2)C(=O)[C@H]1Cc1ccccc1 (stereo partly drawn)	active: 9.28 µM	
Cc1ccc(NC(=O)CSc2nn(-c3ccccc3)c(=S)s2)cc1S(=O)(=O)N(C)C	inconclusive [inhibitor, full curve]	
